Whole data set: some 110,000 compounds, median “z-score” near -0.1, cut for the highest 2% near 2. Some of the results follow. The source made the active and inactive calls.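 How the source made its calls: active means z-score in the third read window above 3 or below -3; inactive means the rest.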
Biological target: Metabotropic glutamate receptor 8 (Rattus norvegicus) (UniProt P70579)
Test: rat mGluR8 modulators via GIRK flux, primary screen, cell-based, thallium flux, HTS (AID 488969)
Settings: HEK293 rat mGluR8, GIRK (G protein-gated inwardly rectifying potassium channel) thallium flux, FluoZin2; at 10 µM; stronger effect = higher value; submaximal glutamate (EC20) added with thallium

Sequence of UniProt P70579 (P70579 whole entry, looked up): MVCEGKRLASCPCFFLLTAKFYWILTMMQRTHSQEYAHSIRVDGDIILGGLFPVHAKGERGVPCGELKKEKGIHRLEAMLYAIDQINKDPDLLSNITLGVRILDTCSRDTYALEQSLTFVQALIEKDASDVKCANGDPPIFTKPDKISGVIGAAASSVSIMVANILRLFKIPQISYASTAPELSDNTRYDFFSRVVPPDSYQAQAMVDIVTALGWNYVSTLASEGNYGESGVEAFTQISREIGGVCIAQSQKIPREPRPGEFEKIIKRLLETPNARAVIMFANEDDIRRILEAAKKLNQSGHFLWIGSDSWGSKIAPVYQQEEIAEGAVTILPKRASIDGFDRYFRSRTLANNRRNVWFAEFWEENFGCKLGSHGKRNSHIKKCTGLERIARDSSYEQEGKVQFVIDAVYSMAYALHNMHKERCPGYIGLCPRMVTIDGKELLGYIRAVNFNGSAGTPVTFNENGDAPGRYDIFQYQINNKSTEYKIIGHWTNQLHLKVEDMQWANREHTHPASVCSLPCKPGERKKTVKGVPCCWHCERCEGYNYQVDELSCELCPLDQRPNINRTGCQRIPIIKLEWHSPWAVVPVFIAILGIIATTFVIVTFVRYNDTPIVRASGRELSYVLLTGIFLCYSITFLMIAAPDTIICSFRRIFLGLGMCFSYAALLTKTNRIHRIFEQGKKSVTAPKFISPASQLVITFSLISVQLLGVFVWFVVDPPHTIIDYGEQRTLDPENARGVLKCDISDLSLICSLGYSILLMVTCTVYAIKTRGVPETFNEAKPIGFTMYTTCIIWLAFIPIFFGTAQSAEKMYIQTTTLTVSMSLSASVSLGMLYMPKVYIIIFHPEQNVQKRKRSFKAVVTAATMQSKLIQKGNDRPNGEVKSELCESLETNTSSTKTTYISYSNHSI

Structure (SMILES)	z-score
Cc1cc(CC(C)C)n(-c2nc3ccccc3c(=O)n2OCc2ccccc2)n1	0.802
O=C(Cc1cccs1)Nc1ccccn1	0.281
O=C(N[C@@H](Cc1ccccc1)C(=O)NC1CCCCC1)c1ccco1	0.0119
Cc1ccc(C(=O)N/C(=C\c2ccc([N+](=O)[O-])cc2)C(=O)NCCc2ccccc2)cc1	-0.0772
O=C(O)c1nn(-c2ccc(Cl)cc2)ccc1=O	0.195
CCOCCCNS(=O)(=O)Cc1ccccc1	0.197
O=C(CN1CCN(c2ccccc2)CC1)Nc1ccc2c(c1)CCC2	0.173
Cc1ccc2[nH]cc(CCNC(=O)c3cccnc3)c2c1	-0.0656
CCOC(=O)/C(=N/Nc1ccccc1)c1csc(Nc2ccccc2)n1	-0.124
CCCCOc1ccc(/C=C2/Sc3ccccc3C2=O)cc1	0.0561
Cc1ccc(C(=O)c2c[nH]c(C(=O)NCc3cccnc3)c2)cc1	-0.257
COc1ccc(-c2c3c(=O)n(C)c(=O)n(C)c3cn2NC(C)=O)cc1	0.258
COc1c(S(=O)(=O)N2CCCCC2)ccc2c(S(=O)(=O)N3CCCCC3)cccc12	-0.152
COC(=O)c1sc2ccccc2c1NC(=O)c1ccc(S(=O)(=O)N2CCCC(C)C2)cc1 (configuration not stated)	-0.17
CCOc1ccc2[nH]c3c(N4CCN(c5ccccn5)CC4)ncnc3c2c1	-1.41
O=C(CSc1n[nH]c(-c2cccs2)n1)N1CCN(S(=O)(=O)c2ccc3ccccc3c2)CC1	-0.0541
COc1ccc(NC(=O)CSc2nnc(C(C)C)n2N)cc1	-0.0537
CC(=O)c1ccc(OCC(O)CN2C(C)(C)CC(O)CC2(C)C)cc1 (configuration not stated)	-0.153
CCCc1cc(C(=O)N2CCN(S(=O)(=O)c3ccc(OC)c(OC)c3)CC2)cs1	-0.181
c1ccc(-c2nnc(SCc3nc4ccccc4[nH]3)n2Cc2ccco2)nc1	-0.0863
CCN(CC)C(=O)c1cc2c(=O)n3ccccc3nc2s1	-0.312
COc1ccc(OC)c(S(=O)(=O)Nc2cc(Cl)cc(Cl)c2)c1	0.365
COc1ccc(Oc2ccc3c(C(F)(F)F)cc(C(F)(F)F)nc3n2)cc1	-0.0388

Structure (SMILES)	z-score
COc1ccc(-c2nnc(SCC(=O)Nc3ccc(C)cc3)n2C)cc1	-0.161
COc1ccccc1N(CC(=O)NC(C)(C)C)C(=O)C1CSC(=O)C1 (configuration not stated)	0.827
COc1cc(/C=N/NC(=O)c2ccoc2C)ccc1O	-0.489
COc1cccc(-c2csc3nc[nH]c(=O)c23)c1	0.947
CCOC(=O)N1CCN(C(=O)C(NC(=O)c2ccc(CC)cc2)C(C)C)CC1 (configuration not stated)	-0.104
CSc1nc2c(c(=O)[nH]1)C(c1ccncc1)C(C(=O)OC(C)C)=C(C)N2 (configuration not stated)	0.292
COc1ccc(NC2=Nc3cccc4cccc2c34)cc1	-0.54
CC(C(=O)NC1CCCC1)N(C(=O)c1ccc(-c2ccccc2)[nH]1)c1ccccc1F (configuration not stated)	0.534
CCCCn1nc2cc(C(=O)N(CC)c3ccc(OC)cc3)ccc2c1OCC	-0.624
CCCCn1nnc(NC(=O)CCC)n1	0.782
COc1cccc(Oc2nc3ncn(Cc4ccccc4)c3c(=O)n2C)c1	-0.674
CCCOC(=O)c1cc(=O)[nH]c2ccccc12	-0.0144
Cc1ccc(C)c(NC(=O)C2CC(Cl)=CCC2C(=O)O)c1 (configuration not stated)	-0.773
N#Cc1c(NC(=O)c2ccc(-c3ccccc3[N+](=O)[O-])o2)sc2c1CCCC2	-0.247
Cc1ccc(COc2coc(CO)cc2=O)cc1	-0.0138
Cc1ccc(S(=O)(=O)Nc2c(C)ccc3nsnc23)cc1	0.21
CCOCCn1c(SC)nc2c1c(=O)[nH]c(=O)n2C	0.161
Cn1c(=O)[nH]c(=O)c2c1nc(N1CCNCC1)n2CCOc1ccccc1	-0.176
CCOC(=O)C(C(=O)Nc1ccccc1C)C1CCCCC1 (configuration not stated)	-0.631
S=c1[nH]nc(C2CC2c2ccc(Cl)cc2)n1-c1ccc(Cl)cc1 (configuration not stated)	0.549
COC(=O)Cn1c(C)c(C#N)c2ccccc21	-0.127
O=C(O)c1ccccc1C(=O)Nc1ccccc1	-0.0814
O=[N+]([O-])c1cc(Cl)cc(/C=N\Nc2ccccn2)c1O	-0.349

Structure (SMILES)	z-score
CCCC(C)C(=O)Nc1nc(C)c(-c2csc(Nc3ccc(Cl)cc3)n2)s1 (configuration not stated)	0.225
Cc1ccsc1/C=C1/SC(N2CC(C)OC(C)C2)=NC1=O (configuration not stated)	-0.238
CCCCN(C)CCCNC(=O)c1ccc2c(c1)NC(=O)C(N1CCOCC1)S2 (configuration not stated)	0.264
O=C(NCC1CCCO1)c1ccc(/C=N/O)nc1 (configuration not stated)	-0.978
Cc1ccccc1-n1ncc2c(SCC(=O)N3c4ccccc4CC3C)ncnc21 (configuration not stated)	-0.217
Oc1ccc(Cl)cc1-c1cc(-c2ccccc2Cl)[nH]n1	0.0076
CCC(=O)Nc1cccc(-c2cn3ccccc3n2)c1	0.0803
Cc1cc(N2CCOCC2)nc(-c2ccc([N+](=O)[O-])cc2)n1	1.09
CCOc1ccc(N(CC(=O)Nc2ccccc2C(=O)NCc2ccco2)S(C)(=O)=O)cc1	-0.34
CSC1=NCCN1C(=O)C(C)(C)Oc1ccc(Cl)cc1	-0.0535
COC(=O)c1ccc(NC(=O)CSc2nnc(COc3c(C)cccc3C)o2)cc1	-0.0223
COc1cccc(-n2c(CN3CCN(c4ccc(C)cc4)C(C)C3)nc3ccc([N+](=O)[O-])cc3c2=O)c1 (configuration not stated)	-0.234
O=C(NCc1ccco1)c1ccc(COc2ccc(Cl)cc2)cc1	0.107
COc1ccc(Cc2ccc(OC)c(N)c2)cc1N	-0.182
Cc1ccc(CNC(=O)c2nc3nc(C)cc(C)n3n2)cc1	-0.588
CCN1C(c2ccc(F)cc2)=CS/C1=C(\C#N)c1nnc2n1-c1ccccc1SC2	-0.761
CCS(=O)(=O)N1CCN(Cc2ccccc2OC)CC1	0.515
CN(C)C(CNC(=O)NC1CCCCC1)c1cccnc1 (configuration not stated)	0.105
CCCNC(=O)OCC12CC3CC(CC(C3)C1)C2	-0.131
O=C(Nc1ccc([N+](=O)[O-])cc1)C1C(c2ccccc2)=C1c1ccccc1	-0.135
COC(=O)c1ccc(-n2c(C)ccc2-c2ccccc2)cc1	-0.0816
CC(C)(C)n1nnnc1C(c1cccc(C#N)c1)N1CCC(Cc2ccccc2)CC1 (configuration not stated)	-0.214
C/C(=N\NC(=O)c1ccc(Cl)cc1)c1cccc(NC(=O)C(C)C)c1	-0.00381

Structure (SMILES)	z-score
Cc1ccc(O)c(N=Cc2cccs2)c1	-0.0333
Cc1cccc(CC2S/C(=N/c3ccccn3)NC2=O)c1 (configuration not stated)	-0.0779
c1ccc(-n2c(SCc3nc(-c4cccs4)no3)nnc2-c2ccco2)cc1	-1.55
CCc1c(O)nc2ccccn2c1=O	-0.0798
Cc1nnc(SCC(=O)Nc2nc3c(s2)CC(C)CC3)s1 (configuration not stated)	0.0116
O=C(CSc1nnc(-c2ccco2)n1-c1ccccc1)N1CCOCC1	-0.0477
O=C(O)Cn1c(C(F)(F)F)nc2ccccc21	-0.399
COc1cc(NC(=O)CSc2ncnc3c2cnn3Cc2ccccc2)cc(OC)c1	-0.493
CC1=NN(c2ccc(Cl)cc2)C(=O)C1C(c1ccccc1O)c1c(C)[nH]n(-c2ccc(Cl)cc2)c1=O (configuration not stated)	-0.5
CC1CCN(S(=O)(=O)c2ccc(NC(=O)N3c4ccccc4Sc4ccccc43)cc2)CC1	-1.05
Cc1ccc2[nH]c(O)c(N=NC(=O)C3CC3c3ccccc3)c2c1Br (configuration not stated)	-0.417
COc1ccccc1NC(=O)CN1CCCCC1	0.635
O=C(c1cccc(S(=O)(=O)N2CCCCC2)c1)N1CCc2ccccc21	-0.782
O=C(OCc1nnc(-c2ccccc2)o1)c1ccc2c(c1)C(=O)N(CCc1ccccc1)C2=O	-0.481
O=C(Nc1ccc(Cl)cc1)OCc1cc(-c2ccccc2)on1	-0.197
COc1cc(/C=C/C(=O)c2ccc(O)cc2)ccc1OCC#N	0.0445
CC(C)CC(=O)Nc1ccc2oc(-c3ccncc3)nc2c1	-0.0096
Cc1cc(C(=O)COC(=O)CNC(=O)c2ccco2)c(C)n1Cc1ccco1	-0.202
CCOc1ccccc1N=c1oc2cc(O)ccc2cc1C(=O)NCC1CCCO1 (configuration not stated)	0.205
CCOC(=O)c1c(C)[nH]c(C)c1C(=O)CSc1nnnn1-c1ccccc1	-1.04
Cc1ccsc1-c1nc(CSCC(=O)N2CCN(c3ccccc3)CC2)c(C)o1	-0.547
CC(=O)NCC(=O)OCC(=O)c1ccccc1	0.372
OCCN(CCO)Cc1ccc(Br)cc1	0.026

Structure (SMILES)	z-score
O=C(NCCCn1ccnc1)c1ccc2c(c1)OCCO2	0.0722
CCCSc1nc(SCC(=O)NCc2ccccc2)c2c3c(sc2n1)COC(C)(CC)C3 (configuration not stated)	-0.215
O=C(CSCc1ccccc1)N=Nc1c(O)[nH]c2ccccc12	active: 6.08
COc1ccc(/C=N\NC(=O)CNC(=O)C(c2ccccc2)c2ccccc2)cc1[N+](=O)[O-]	-0.12
CCOC(=O)c1ccc(N2CSC3=C(C#N)C(c4ccc(OC)cc4OC)CC(=O)N3C2)cc1 (configuration not stated)	-0.467
COc1ccccc1NS(=O)(=O)c1cc(NC(=O)Nc2cccc(C)c2)ccc1N1CCCCC1	-0.24
COc1ccc(NS(=O)(=O)c2c(C)n(C)c(=O)n(C)c2=O)cc1OC	-0.0428
COc1ccc(CCN2C(=O)c3cccnc3C2=O)cc1OC	0.487
Cn1c(=O)c2c(nc(SCCN3CCCCC3)n2C)n(C)c1=O	-0.15
Cc1csc(NC(=O)c2ccc3c(=O)n4c(nc3c2)CCCCC4)n1	-0.227
CCOC(=O)c1c(NC(=O)N/N=C/c2ccccc2OCC)sc(C(C)=O)c1C	0.0659
Cc1cc(NC(=O)CCOc2ccccc2)no1	0.484
CCN(CC)C(=O)c1ccc(C)c(Br)c1	-0.37
CCc1nc2sc3c(c2c(=O)o1)CCCC3	0.544
c1ccc2c(c1)ncn2CCCOc1ccc2c(c1)CCC2	-0.337
CC(C)NS(=O)(=O)c1ccc(OCC(=O)N2CCCC2)c(Cl)c1	-0.142
CCn1c(CCNC(=O)c2cccs2)nnc1SCC(=O)c1ccc(OC)cc1	-0.211
Cc1ccc(SCc2cc(=O)[nH]c(N3CCN(C)CC3)n2)cc1	0.0023
N#C/C(=C/c1ccc(-c2ccc(C(=O)O)c(Cl)c2)o1)C(=O)NCC1CCCO1 (configuration not stated)	0.533
CN(C=C1C(=O)CC(C)(C)CC1=O)CCN1CCNCC1	0.255
